# The other results are listed elsewhere or left out. Antibody binding of pooled human sera (four to six donors per pool; dilution not stated) to peptides of the Trypanosoma cruzi antigen TSSA on microarrays. Quantile-normalised fluorescence in arbitrary units, mean of duplicate arrays; higher = more binding. No active / inactive call. The uninfected pools are read here as the healthy donors of the same country. The strongest signals lie near the top of the scale (about 60,000).
# Experiments:
# Experiment in all cases: antibody binding signal (normalised fluorescence) (arbitrary fluorescence units); higher = stronger serum antibody binding to peptide
# [1] = system: pooled sera of chronic Chagas disease patients, Argentina
# Experimental: (§1)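 Microarray of 15-residue peptides over residues 30-55 of Trypanosoma cruzi TSSAII, each with 1 to 10 substitutions at naturally variable positions, probed with one serum pool per country.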
# [2] = system: pooled sera of chronic Chagas disease patients, Bolivia
# Experimental: as §1
# [3] = system: pooled sera of chronic Chagas disease patients, Brazil
# Experimental: as §1
# [4] = system: pooled sera of chronic Chagas disease patients, Colombia
# Experimental: as §1
# [5] = system: pooled sera of chronic Chagas disease patients, Mexico
# Experimental: as §1
# [6] = system: pooled sera of chronic Chagas disease patients, USA
# Experimental: as §1
# [7] = system: pooled sera of uninfected people, Argentina
# Experimental: as §1
# [8] = system: pooled sera of uninfected people, Bolivia
# Experimental: as §1
# [9] = system: pooled sera of uninfected people, Brazil
# Experimental: as §1
# [10] = system: pooled sera of uninfected people, Colombia
# Experimental: as §1
# [11] = system: pooled sera of uninfected people, Mexico
# Experimental: as §1
# [12] = system: pooled sera of uninfected people, USA
# Experimental: as §1
Sequence,antibody binding signal [1],antibody binding signal [2],antibody binding signal [3],antibody binding signal [4],antibody binding signal [5],antibody binding signal [6],antibody binding signal [7],antibody binding signal [8],antibody binding signal [9],antibody binding signal [10],antibody binding signal [11],antibody binding signal [12]
SGTDNKPATGGTPSQ,4940,2120,43800,3200,668,574,223,1010,518,284,417,216
SGTDNKPAAGGAPSP,3490,1680,44200,3920,359,1060,153,601,364,289,398,247
SGKDKKTAAGETPSQ,537,393,725,936,823,1470,143,122,101,528,104,114
SGKEKKAATGGTPSQ,2170,370,2620,2590,5560,5250,186,92.2,176,393,87.4,108
KDKKAATGEAPSPSG,7810,5110,14500,148,212,16600,268,86.5,106,142,73.9,103
KDNKPATGGAPSPPG,545,2240,2750,362,255,2030,546,852,152,159,212,140
SGKDNKPAAGGAPSQ,714,281,6370,1710,1040,1260,331,347,176,700,191,142
SGKDNKTAAGGAPSQ,586,249,968,6060,1070,2110,174,131,156,521,101,157
KEKKTAAGGAPSPSG,164,202,179,2660,288,281,114,107,125,144,107,152
TENKTATGETPSQSG,18500,1560,7750,211,245,7750,117,200,213,147,287,141
GTDNKAATGGAPSQS,643,384,33900,838,534,1700,301,588,1710,197,208,108
KPAAGGTPSPPGASS,202,203,248,1640,278,190,149,170,280,240,94.2,165
GTEKKAAAGGAPSQP,747,318,1210,4920,809,498,178,335,242,128,129,121
KEKKAATGGAPSQSG,466,218,326,233,1590,527,203,97.6,110,341,82.7,107
GTEKKPAAGGAPSPS,472,195,464,4570,755,1130,201,797,823,108,257,1430
GTDNKTATGGAPSPS,448,297,25700,722,395,476,329,678,1970,204,294,169
TPPSGKDKKTATGEA,6380,538,1080,269,37900,700,202,259,219,194,113,109
TENKPATGETPSQSG,42500,28300,34800,243,605,25600,364,576,303,141,1630,182
GKDNKAATGGTPSQS,703,270,565,1400,1930,1330,177,237,171,149,127,93.4
PSGTEKKPATGEAPS,47900,43500,47600,1630,2120,40600,1420,833,821,342,636,452
SGKDNKTAAGEAPSP,919,422,2020,3490,1130,8270,270,206,235,690,152,143
STPPSGKEKKTAAGG,13600,630,511,1780,29100,814,302,439,136,250,130,211
NKAAAGETPSPSGAS,241,844,10600,295,470,1520,438,824,539,419,470,929
KENKTAAGEAPSQPG,5300,12000,37800,376,237,7250,220,178,156,133,149,142
DNKTAAGGTPSPSGA,1610,255,455,5300,378,1370,243,322,1410,427,1110,191

Sequence,antibody binding signal [1],antibody binding signal [2],antibody binding signal [3],antibody binding signal [4],antibody binding signal [5],antibody binding signal [6],antibody binding signal [7],antibody binding signal [8],antibody binding signal [9],antibody binding signal [10],antibody binding signal [11],antibody binding signal [12]
SGKDNKAATGGAPSQ,791,230,1860,1140,1030,1380,259,193,139,241,86,108
PSGTDNKPATGEAPS,48800,42900,49400,1920,409,41800,1090,992,683,360,385,210
STPPSGKDKKTATGG,9840,690,2440,1960,35000,1640,219,277,102,170,97.3,123
KENKPATGGTPSPPG,374,379,1370,188,729,381,334,416,180,150,141,163
TPPSGTDKKAATGGA,12800,4510,30200,5700,19800,1960,568,597,169,570,1170,431
GKDNKAATGETPSPP,4470,2050,18600,2420,2960,11900,250,327,113,252,141,831
KKAATGETPSPSGAS,330,247,4660,164,230,6530,423,200,98.5,198,77.2,387
KDNKAATGGTPSQSG,285,337,311,280,215,188,248,604,195,175,99.4,111
GTDKKAATGEAPSPP,21500,23500,30900,2040,451,25400,445,242,145,433,258,167
TPPSGTDKKAAAGGA,22900,4420,30400,5120,39600,2000,718,199,439,232,1000,271
PSGKEKKAATGGTPS,5660,739,5160,8240,9260,5950,307,147,156,353,95.1,132
DNKAATGGAPSQSGA,572,396,2190,582,529,1900,353,178,264,215,276,143
GKDNKPAAGEAPSPS,1660,763,21100,1600,1590,15700,193,784,154,336,307,84.5
TPPSGKDKKAATGGT,4460,280,519,446,39200,687,165,231,387,346,81.6,161
GKENKPATGETPSQP,37800,20000,37900,12700,13200,29700,1030,676,355,139,1780,179
TPPSGTDNKPAAGGT,52800,49400,51700,8870,33200,23900,1340,979,1840,474,1450,375
ENKAAAGGAPSPSGA,494,1420,944,5050,374,829,325,142,231,265,196,388
NKPATGEAPSPPGAS,26400,44200,47000,447,202,40000,1240,1560,701,604,243,1360
EKKPATGETPSQPGA,33900,18400,38400,340,278,24800,296,1090,481,309,2060,517
TEKKTAAGETPSQSG,739,574,1040,467,444,1540,129,255,288,848,411,225
GKDKKAATGEAPSPS,15100,3840,15800,1940,1720,18500,305,72.9,90.3,171,70.4,102
TDKKAAAGETPSQSG,735,421,3270,410,244,1020,98.5,176,172,658,248,113
TENKTAAGGTPSQSG,23000,547,366,4920,497,1480,439,239,1410,190,2300,192
PPSGTDKKAATGETP,4600,9140,21100,4240,13400,10200,591,337,424,690,2260,244
GTENKTATGETPSQP,28800,8180,29400,986,1020,7420,126,332,361,172,258,148

# — the supplement of paper PMC10441789
